Assay results published in PubChem BioAssay AID463173 (ICCB-Longwood Screening Facility, Harvard Medical School, 2010).
Screen size: about 52,000 compounds; about 1,700 (3.3%) were called active. Rule as the data show it: active = survival mostly below about 52% (no sharp cut-off); inactive = mostly above about 56%. This is one part of the list.

Each compound was assayed on Wild type (assay: growth inhibition of S. aureus wild type versus tarO mutant, primary screen, teichoic acid synthesis inhibitors, RN4220, OD600 (AID 463173)). Details: S. aureus RN4220 wild type/DeltatarO growth, OD600, 18 h, hits give low values, screened at 18.75 µg/mL (by protocol).

SMILES | survival
CCOc1ccc(CNC(=O)c2ccc3c(c2)sc2nc(-c4ccccc4)cn23)cc1 | inactive: 84%
Cc1ccc(-c2noc(CNC(=O)COc3cc(C)c(Br)c(C)c3)n2)cc1 | inactive: 89%
CCOCCc1nnc(NC(=O)C(=O)c2cc(C)n(-c3cccc(C)c3)c2C)s1 | inactive: 83%
O=C(NC1CCCCC1)c1ccc2c(c1)sc1nc(-c3ccc(F)cc3)cn12 | inactive: 92%
Cc1ccc(-n2nc(C(=O)N3CCN(c4ccc(F)cc4)CC3)c(=O)n(C)c2=O)cc1 | inactive: 76%
COc1ccc2nc(NC(=O)c3nc(S(=O)(=O)Cc4ccccc4F)ncc3Cl)sc2c1 | inactive: 94%
c1ccc2c(c1)[nH]c1c(N3CCOCC3)ncnc12 | inactive: 112%
O=C(O)CCC(=O)Nc1ccccc1O | inactive: 102%
COc1ccc(NCc2cc3cc4c(cc3n(CC(=O)Nc3cccc(F)c3)c2=O)OCO4)cc1 | inactive: 121%
Cc1ccc(Cl)cc1-n1c(CCC(=O)O)ccc1-c1cccs1 | inactive: 64%
COc1cc(OC)c(NC(=O)Cn2c(=O)c(C(F)(F)F)nc3ccccc32)cc1Cl | inactive: 53%
CCc1cccc(NC(=O)Cn2c(=O)n(-c3ccccc3C)c(=O)c3c2c2cc(C)ccc2n3C)c1 | inactive: 80%
COC(=O)c1ccc(CSc2nc3c([nH]c4ccccc43)c(=O)n2-c2ccc(F)cc2)o1 | inactive: 66%
O=C(Cn1c(=O)n(-c2ccccc2)c(=O)c2ccc(C(=O)NCc3ccc4c(c3)OCO4)cc21)Nc1ccc(F)cc1 | inactive: 73%
Clc1ccccc1N1CCN(Cc2nnc(-c3ccccc3)o2)CC1 | inactive: 80%
COc1ccc(CCCc2nnc(SCC(=O)Nc3cccc(C)c3)o2)cc1C | inactive: 88%
O=C(c1ccccc1)N(C(=O)c1ccccc1)c1ccccn1 | inactive: 112%
CCCCCC[N+]1(CCO)CCOCC1 | inactive: 118%
Cc1ccc(CNC(=O)c2ccc(CS(=O)(=O)Cc3ccc(F)cc3)o2)cc1 | inactive: 90%

SMILES | survival
CCCCc1nn2c(=O)cc(COC(=O)c3cccc(NC(=O)c4cccc(Cl)c4)c3)nc2s1 | inactive: 85%
CCOc1nc(-c2ccccc2)cc(-c2ccccc2)n1 | inactive: 125%
Cc1ccccc1CN1CCc2nc(N3CCN(c4ncccn4)CC3)ncc2C1 | inactive: 75%
NC(=O)c1cc2c([nH]c1=O)CCCCCCCCCC2 | inactive: 120%
CCCCN(C)CCCNC(=O)Cn1ncc2c3ccccc3n(Cc3cccc(Cl)c3)c2c1=O | inactive: 86%
Cc1cccc(N2CCN(S(=O)(=O)c3cn(C)c(C)n3)CC2)c1C | active: -3%
CCOc1ccccc1C(=O)Oc1c(S(=O)(=O)c2ccc(C)cc2)c(C)nn1-c1ccccc1 | inactive: 63%
COc1cc(NC(=O)CSc2nc(-c3cccs3)cc(C(F)(F)F)n2)cc(OC)c1OC | inactive: 69%
COc1cccc(-n2c(SCC(=O)N3CCc4ccccc43)nc3c([nH]c4ccccc43)c2=O)c1 | inactive: 71%
COCCNc1ccc(-c2nc(-c3ccncc3)no2)cc1[N+](=O)[O-] | inactive: 92%
Cc1cccc(CSc2nc3c(c(=O)[nH]2)CCC3)c1 | inactive: 78%
O=C(Nc1ccc(F)cc1F)c1cccc2c1C(=O)N(C1CCCCC1)C2 | inactive: 94%
CCN(CC)CCNc1nc2c(c(=O)n(C)c(=O)n2C)n1CCc1ccccc1 | inactive: 122%
COc1ccc(S(=O)(=O)NCc2cccn2Cc2cccc(C)c2)cc1Cl | inactive: 119%
CCc1ccc(C2CC(=O)c3c([nH]c(C(=O)OC4CCC(C)CC4)c3C)C2)cc1 (configuration not stated) | inactive: 91%
CNC(=O)c1ccc2nc(CCc3ccccc3)oc2c1 | inactive: 73%
CCS(=O)(=O)N1CCc2cc(C(=O)N3CCN(c4ccc(OC)cc4)CC3)ccc21 | inactive: 78%
COc1ccc(OC)c(S(=O)(=O)N2Cc3ccccc3CC2C(=O)Nc2ccc(C)cc2C)c1 (configuration not stated) | inactive: 77%
CCc1cccc(C)c1NC(=O)C(CC)n1nc(C)c2c(C)n(-c3ccccc3)nc2c1=O (configuration not stated) | inactive: 75%

SMILES | survival
COc1ccc(-c2nc(SCC(=O)Nc3ccccc3)c(-c3ccc(F)cc3)[nH]2)cc1OC | inactive: 58%
COc1ccc(-c2cc(C(F)(F)F)nc(SCC(=O)N3CCCCC3)n2)cc1OC | inactive: 90%
CCOC(=O)c1cc(-c2ccc(OC)c(S(=O)(=O)NC3CCCCC3)c2)on1 | inactive: 71%
CCCCN(CC)CCCNC(=O)CN1C(=O)CSc2ccc(S(=O)(=O)N3CCOCC3)cc21 | inactive: 99%
COc1ccccc1N(CC(=O)N1CCC(C)CC1)S(=O)(=O)c1ccc(C)cc1 | inactive: 126%
COc1ccc(CCNC(=O)CN2C(=O)COc3ccc(C)cc32)cc1OC | inactive: 71%
CCN(C(=O)Cn1nc(Cc2ccncc2)c2ccccc2c1=O)c1cccc(Cl)c1 | inactive: 79%
Cn1c(=O)c2c(nc(SCC(=O)N3CCCC3)n2C)n(C)c1=O | inactive: 107%
Cc1cccc(Nc2nn3c(=O)c4cc5c(cc4nc3s2)OCO5)c1 | inactive: 135%
COCCCNC(=O)c1c(-c2ccccc2)c(-c2ccccc2)nn(C)c1=O | inactive: 87%
O=C(Nc1ccc2nc3n(c(=O)c2c1)CCCCC3)C(=O)Nc1ccccc1F | inactive: 69%
COc1cc(NC(=O)c2nn(C)c3c2CS(=O)(=O)c2ccccc2-3)cc(OC)c1 | inactive: 78%
CCc1ccc(Cn2c(CNS(=O)(=O)c3ccc([N+](=O)[O-])cc3)nc3cccnc32)cc1 | active: 0%
Cc1ccc(C(=O)NCc2ccc3c(c2)CCN3C(=O)c2ccc(C)cc2)cc1 | inactive: 72%
COCCNC(=O)c1ccc(-n2c(-c3ccccc3)cc3c2CCC(C)C3)cc1 (configuration not stated) | inactive: 105%
CCn1nc(C)c(CCN(C)C(=O)Nc2ccc(C)c(Cl)c2)c1C | inactive: 63%
Cc1cc(Nc2cccc(Cl)c2)nc2ccc(NC(=O)Cc3ccc(Cl)cc3)cc12 | inactive: 79%
CCN(CC)CCNC(=O)CN1C(=O)COc2ccc(S(=O)(=O)N3CCOCC3)cc21 | inactive: 82%
CCOC(=O)Cn1c(=O)n(CC2CCCO2)c2nc(-c3ccc(OCC)cc3)nc(C(N)=O)c21 (configuration not stated) | active: -4%
